Reference: PubChem BioAssay AID686978 (National Center for Advancing Translational Sciences (NCATS), 2013)
Screen size: about 420,000 compounds; about 64,000 (15%) were called active. Inconclusive results, whose numbers are uncertain, are shown with a selection of clear calls. Calls come from the whole dose curve; as a rule, active = well fitted inhibition curve with a large enough effect; inconclusive = small, poorly fitted or top-dose-only effect; inactive = flat fitted curve, though single readings scatter. No potency is given beside an inconclusive call; the fits are too rough.

Assay: qHTS for Inhibitors of human tyrosyl-DNA phosphodiesterase 1 (TDP1): qHTS in cells in absence of CPT; note: nearly all actives have a fitted effect of over 55% in size
Conditions: DT40 Tdp1-/- hTDP1 cells, no CPT, ATP luminescence, 48 h; activity change, negative = growth inhibition: at 46.2 µM (top of the series) unless noted
Method in brief: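 Camptothecin absent (DMSO only). Human TDP1-complemented DT40 knockout cells, 400 cells/well, 37 °C for minimum 48 hr; ATP measured via CellTiter-Glo, 30 min dark incubation, luminescence.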
% is set by controls: 0 for no effect and ±100 for the full control effect; potency is the fitted concentration of half-maximal effect; tags give direction and shape of the fitted curve.

| Structure (SMILES) | Potency | activity change, negative = growth inhibition |
| --- | --- | --- |
| O=C(CCNS(=O)(=O)c1ccc(Br)cc1)NCc1cccs1 | inconclusive [inhibitor, partial curve] |  |
| Cc1cccc(OCC(=O)Nc2ccccc2N2CCN(C)CC2)c1 | inconclusive [inhibitor, single point] |  |
| CCCSc1nnc(Sc2nnnn2-c2ccccc2)s1 | active: 2.91 µM |  |
| O=C(COc1ccccc1)NC1CCN(Cc2ccccc2)CC1 |  | inactive: -8.48% |
| Cc1cccc(NC(=O)CNC(=O)c2cc(C3CC3)nn2-c2ccccc2)c1C | inconclusive [inhibitor, partial curve, poor fit] |  |
| Cc1ccc(NC(=O)C(=O)NCC(c2cccnc2)N2CCOCC2)cc1Cl (stereo unspecified) | inconclusive [inhibitor, single point] |  |
| Cn1nc(CC(=O)N2CCN(c3ccccc3)CC2)c2ccccc2c1=O |  | inconclusive: -34.5% [inhibitor] |
| Cc1nc2c(-c3ccccc3)c(C)[nH]n2c(=O)c1Cc1ccccc1 | inconclusive [inhibitor, single point] |  |
| COc1ccccc1N(C)S(=O)(=O)c1ccc(C(=O)N2CCC(C(N)=O)CC2)cc1 |  | inconclusive: -32.4% [inhibitor] |
| CCN(CC)CCN(C(=O)c1ccc(S(=O)(=O)N(C)C2CCCCC2)cc1)c1nc2c(C)cccc2s1 | active: 20.6 µM |  |
| O=C(CSc1ncnc2c1cnn2-c1ccccc1Cl)N1CCN(C(=O)c2ccco2)CC1 |  | inconclusive: -32% [inhibitor] |
| Fc1cccc(C2CCCCN2Cc2nc(C3CC3)no2)c1 (stereo unspecified) | inconclusive [inhibitor, single point] |  |
| COc1ccc(OC)c2[nH]c(C(=O)O)cc12 |  | inactive: -8.83% |
| COc1ccc(-c2nn(-c3ccccc3)cc2C(=O)NC2CC2)cc1 | inconclusive [inhibitor, single point] |  |
| COC(=O)C1=C(C)NC(=O)NC1c1ccc(-c2ccc(Cl)cc2)o1 (stereo unspecified) | inconclusive [inhibitor, single point] |  |
| COc1ccc(C(=O)Nc2ccnn2C2CCN(Cc3ccc4nonc4c3)CC2)cc1 | inconclusive [inhibitor, single point] |  |
| O=C(N/N=C/c1ccc(O)cc1)c1cccc(N/N=C/c2ccc(O)cc2)c1 |  | inactive: 0.546% |
| O=C(NCc1ccc(Cl)cc1)C1CCCN1C(=O)Nc1ccc(F)cc1 (stereo unspecified) |  | inactive: 8.87% |
| O=C(O)c1ccc2c(=O)n3c(nc2c1)/C(=C/c1ccc(OC(F)F)cc1OC(F)F)CC3 | inconclusive [inhibitor, partial curve] |  |
| O=C1NC(=S)N/C1=C/c1cccc([N+](=O)[O-])c1O |  | inactive: 0.648% |
| COc1ccc(C)cc1NC(=O)CCc1c(C)nn(-c2ccc(N3CCOCC3)nn2)c1C | inconclusive [inhibitor, single point] |  |
| O=C(Cc1ccc(Cl)cc1)Nc1nnc2n1CCS2 |  | inactive: -13.4% |
| COC(=O)c1ccc(CSc2nc3sc4c(c3c(=O)n2C)CCCC4)o1 | inconclusive [inhibitor, partial curve, poor fit] |  |
| COc1cccc(C(O)c2nc(-c3ccc(C)c(C)c3)cs2)c1 (stereo unspecified) | inconclusive [inhibitor, single point] |  |

| Structure (SMILES) | Potency | activity change, negative = growth inhibition |
| --- | --- | --- |
| CC1OC(CCc2cccc(Cl)c2)Cc2[nH]c(=S)[nH]c(=O)c21 (stereo unspecified) | active: 25.9 µM |  |
| CCOC(=O)C1=C(C)N=c2s/c(=C\c3ccc(OC(C)=O)cc3)c(=O)n2C1/C=C/c1ccccc1 (stereo unspecified) | inconclusive [inhibitor, single point] |  |
| CCc1ccc(NC(=O)N(Cc2ccco2)C(C)c2cccs2)cc1 (stereo unspecified) | inconclusive [inhibitor, single point] |  |
| CSCC[C@H](NC(=O)NCc1ccc(F)cc1)C(=O)O |  | inconclusive: -30.3% [inhibitor] |
| Cc1ccc(-n2nc(C)c3c(C)cc(=O)n(CC(=O)N4CCCc5ccccc54)c32)cc1 |  | inactive: 2.56% |
| COc1ccc(OC)c(NC(=O)COC(=O)CCc2nc3ccccc3c(=O)[nH]2)c1 |  | inactive: -2.32% |
| Cc1ccc(NC(=O)c2c(C)oc3ncnc(N4CCCCC4)c23)cc1Cl | active: 16.4 µM |  |
| Cc1ccc(N(C(=O)c2snc(C(N)=O)c2N)C(C(=O)NCc2ccccc2)c2ccncc2)c(C)c1 (stereo unspecified) | inconclusive [inhibitor, single point] |  |
| COc1ccc(N2C(=O)CC(N3CCC(c4nc5ccccc5[nH]4)CC3)C2=O)cc1 (stereo unspecified) | inconclusive [inhibitor, single point] |  |
| Cc1c(C#N)c2ccccc2n1CC(=O)O |  | inactive: -16.2% |
| COc1ccc(Cl)cc1NC(=O)CN(C)S(=O)(=O)c1cccs1 |  | inactive: -14% |
| Cc1cc(=O)[nH]c(SCC(=O)Nc2cc(S(=O)(=O)N3CCCC3)ccc2Cl)n1 |  | inactive: 11.2% |
| O=C1N[C@@H](Cc2ccccc2)C(=O)N2CCCC12 (stereo partly specified) |  | inactive: -11% |
| Cc1cccc(NC(=O)c2ccc(C(=O)Nc3cccc(C)c3)nc2)c1 | active: 16.4 µM |  |
| CCCCCC(C)n1[nH]c(=O)c2c(C)cc(C)nc21 (stereo unspecified) | inconclusive [inhibitor, single point] |  |
| CN(Cc1ccccc1)Cc1c[nH]c2ccccc12 | active: 20.6 µM |  |
| c1ccc(-c2nnsc2Sc2ccccn2)cc1 |  | inactive: 0.084% |
| O=C1NC[C@H](CCCCN2C[C@H](Cc3ccccc3)N(CCC3CCCCC3)C(=O)C2=O)N(Cc2ccccc2)C1=O | inconclusive [inhibitor, single point] |  |
| CCc1cc(CNC(=O)c2ccc(OC3CCN(CCc4ccccc4)CC3)cc2)on1 |  | inactive: -26.6% |
| Cc1cc(C)c(NS(=O)(=O)c2ccc(-c3cnc(C4CC4)o3)cc2)c(C)c1 | active: 0.0184 µM |  |
| COc1ccc(Cl)cc1-c1cc(C(=O)Nc2ccc(Br)cc2)[nH]n1 | inconclusive [inhibitor, single point] |  |
| CCOC(=O)c1c(C)nc2c(c1C)/C(=N/O)CC(C)(C)C2 | active: 23.1 µM |  |
| CC1(c2ccc3ccccc3c2)NC(=O)N(CC(=O)Nc2cccc(S(=O)(=O)N3CCOCC3)c2)C1=O (stereo unspecified) | inconclusive [inhibitor, single point] |  |
| COc1ccc(NC(=O)C(=O)NCC2(c3ccc(OC)c(OC)c3)CCCC2)cc1 | inconclusive [inhibitor, single point] |  |

| Structure (SMILES) | Potency | activity change, negative = growth inhibition |
| --- | --- | --- |
| O=[N+]([O-])c1cc(Cl)ccc1N1CCN(c2ccccc2O)CC1 | inconclusive [inhibitor, single point] |  |
| COCCN(CCOC)C(=S)Nc1ccccc1 |  | inactive: -19.1% |
| COc1ccccc1C(=O)Nc1ncc2c(n1)CC(c1ccco1)CC2=O (stereo unspecified) |  | inconclusive: -40.6% [inhibitor] |
| COc1cccc(CNC(=O)Cc2csc3ccccc23)c1OC | inconclusive [inhibitor, partial curve] |  |
| CCOC(=O)CCP(=O)(O)C(O)(c1ccccc1)c1ccccc1 |  | inactive: -9.03% |
| CCCOc1ccc(CCN2CCC(=O)NC2=O)cc1C | inconclusive [inhibitor, partial curve, poor fit] |  |
| CCN1CCN(c2ccc(NC(=O)c3cccc(OCc4ccccc4)c3)cc2)CC1 | inconclusive [inhibitor, single point] |  |
| CSc1nc2ccc(Br)cc2[nH]1 | inconclusive [inhibitor, partial curve] |  |
| CCCOC(=O)c1c(NC(=O)C2c3ccccc3Oc3ccccc32)sc2c1CCCC2 | inconclusive [inhibitor, single point] |  |
| CCN1CCN(CC(=O)Nc2cc3c(cc2C(C)=O)OCO3)CC1 |  | inactive: -8.04% |
| COc1ccc(C)cc1NC(=O)c1cc(S(=O)(=O)N2CCCCC2)ccc1N1CCOCC1 | inconclusive [inhibitor, single point] |  |
| COc1ccccc1-c1nc2c(c(SCC(=O)N3CCCCC3)n1)Cc1c(CO)cnc(C)c1O2 | active: 6.51 µM |  |
| CC1CCCCC1NC(=O)CCn1c(=O)sc2ccccc21 (stereo unspecified) | inconclusive [inhibitor, single point] |  |
| Cc1cc(C)c(CC(=O)c2ccccc2)c(C)c1 | inconclusive [inhibitor, partial curve] |  |
| Cc1cc(CNC(=O)c2cccc3c2C(=O)c2ccc(-c4ccc(F)cc4OCc4ccccc4)cc2S3(=O)=O)c(C(F)(F)F)o1 | active: 11.6 µM |  |
| COc1ccc(NC(=O)CCCSc2nc(-c3ccco3)cc(C(F)(F)F)n2)c(OC)c1 | inconclusive [inhibitor, single point] |  |
| CCOCCCNc1nc2c(C)cccn2c(=O)c1/C=C1\SC(=S)N(C(C)CC)C1=O (stereo unspecified) | inconclusive [inhibitor, single point] |  |
| COc1cccc(N2CCN(C(=O)CSc3ccc(F)cc3)CC2)c1 | inconclusive [inhibitor, partial curve] |  |
| Cc1ccc(C2(CCN)CCOC(C(C)C)C2)cc1 (stereo unspecified) | inconclusive [inhibitor, single point] |  |
| Cc1onc(-c2ccccc2Cl)c1C(=O)N1CCCC1 |  | inactive: -19.9% |
| COc1cc2cc(CN(CCc3cccc(C)c3)C(=S)NCCCN(C)C)c(=O)[nH]c2cc1OC | inconclusive [inhibitor, partial curve] |  |
| C/C(=N\NC(=O)c1nc2ccccn2c1C)c1cccc([N+](=O)[O-])c1 | inconclusive [inhibitor, single point] |  |
| Cc1cc(Cl)ccc1OCC(=O)N1CCOc2ccc(CN3C[C@@H](C)O[C@@H](C)C3)cc2C1 | inconclusive [inhibitor, single point] |  |
